# Experimental data taken from the supplement of paper PMC4604168 (melanoma cell lines).
# The other results are listed elsewhere or left out. Most values come without repeats; read them as rough.
# Test system: IPC-298
# Assay: cell count relative to DMSO control; melanoma cells; higher = more viable cells
# Conditions: library dose: standard library concentration; 72 h
# 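Also: cells treated in 1,536-well plates, then fixed and DAPI-stained, with nuclei counted from automated high-throughput microscope images.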
row,SMILES,cell count [%]
1,"O=C(O)c1ccc2c(c1)nc(Nc1cccc(Cl)c1)c1ccncc12 + Cc1cc([N+](=O)[O-])ccc1NS(=O)(=O)c1cc(Cl)ccc1Cl [FH535] (first compound 2 µM, partner dose 5 µM)",68.4
2,"O=C(Nc1cc(C(F)(F)F)cc(C(F)(F)F)c1)c1cc(Cl)ccc1O + Cn1c(Nc2ccc(C(F)(F)F)cc2)nc2cc(Oc3ccnc(-c4ncc(C(F)(F)F)[nH]4)c3)ccc21 [CHIR265] (first compound 0.08 µM, partner dose 0.4 µM)",40.9
3,"O=C(O)[C@@H]1[O][Sb](=[O])([O][Sb]2(=[O])[O][C@H]([C@H](O)CO)[C@H](O)[C@H](C(=O)O)[O]2)[O][C@H]([C@H](O)CO)[C@@H]1O (stereo partly specified) [stibogluconate] + COc1cc2ncnc(Nc3ccc(Oc4ccccc4)cc3)c2cc1OC [SrcI1] (first compound 10 µM, partner dose 10 µM)",80.8
4,"O=C(O)c1ccc2c(c1)nc(Nc1cccc(Cl)c1)c1ccncc12 + C#Cc1cccc(Nc2ncnc3cc(OCCOC)c(OCCOC)cc23)c1 [erlotinib] (first compound 2 µM, partner dose 4 µM)",42.9
5,"Cc1cc(N2CCOCC2)cc2[nH]c(-c3c(NC[C@@H](O)c4cccc(Cl)c4)cc[nH]c3=O)nc12 + Oc1cc(-c2nc(-c3ccccc3)[nH]c2-c2ccncc2)ccc1Cl [L779450] (first compound 1 µM, partner dose 1 µM)",63.3
6,"O=C(O)[C@@H]1[O][Sb](=[O])([O][Sb]2(=[O])[O][C@H]([C@H](O)CO)[C@H](O)[C@H](C(=O)O)[O]2)[O][C@H]([C@H](O)CO)[C@@H]1O (stereo partly specified) [stibogluconate] + O=S(=O)(c1ccccc1)N(CC(F)(F)F)c1ccc(C(O)(C(F)(F)F)C(F)(F)F)cc1 [T0901317] (first compound 10 µM, partner dose 7 µM)",86.2
7,"O=C(O)[C@@H]1[O][Sb](=[O])([O][Sb]2(=[O])[O][C@H]([C@H](O)CO)[C@H](O)[C@H](C(=O)O)[O]2)[O][C@H]([C@H](O)CO)[C@@H]1O (stereo partly specified) [stibogluconate] + Cn1cncc1[C@@](N)(c1ccc(Cl)cc1)c1ccc2c(c1)c(-c1cccc(Cl)c1)cc(=O)n2C [tipifarnib] (first compound 10 µM, partner dose 0.05 µM)",92.5
8,"O=C(Nc1cc(C(F)(F)F)cc(C(F)(F)F)c1)c1cc(Cl)ccc1O + COc1ccc(COc2ccc(Cc3cnc(N)nc3N)cc2OC)cc1 [GW2580] (first compound 0.08 µM, partner dose 5 µM)",81.4
9,"O=C(Nc1cc(C(F)(F)F)cc(C(F)(F)F)c1)c1cc(Cl)ccc1O + Cc1cc([N+](=O)[O-])ccc1NS(=O)(=O)c1cc(Cl)ccc1Cl [FH535] (first compound 0.08 µM, partner dose 5 µM)",57.4
10,"O=C(Nc1cc(C(F)(F)F)cc(C(F)(F)F)c1)c1cc(Cl)ccc1O + Cn1cc(/C=C2\C(=O)Nc3cccnc32)c2ccccc21 [GW441756] (first compound 0.08 µM, partner dose 2 µM)",85.8
11,"O=C(O)c1ccc2c(c1)nc(Nc1cccc(Cl)c1)c1ccncc12 + CCc1ccc(CCOc2ccc(CC3SC(=O)NC3=O)cc2)nc1 [pioglitazone] (first compound 2 µM, partner dose 10 µM)",96
12,"Cc1cc(N2CCOCC2)cc2[nH]c(-c3c(NC[C@@H](O)c4cccc(Cl)c4)cc[nH]c3=O)nc12 + CC(C)CCN1c2nc(Nc3cc(F)c(O)c(F)c3)ncc2N(C)C(=O)C1C [BID1870] (first compound 1 µM, partner dose 1 µM)",65.8
13,"O=C(Nc1ccccc1)c1cc([N+](=O)[O-])ccc1Cl + COc1ccc(-c2ccc3c(N4CCOCC4)nc(N4C[C@@H](C)O[C@@H](C)C4)nc3n2)cc1CO [KU0063794] (first compound 10 µM, partner dose 0.1 µM)",90
14,"O=C(O)c1ccc2c(c1)nc(Nc1cccc(Cl)c1)c1ccncc12 + O=c1cc(-c2cccc3c2Sc2ccccc2S3)oc(N2CCOCC2)c1 [KU55933] (first compound 2 µM, partner dose 5 µM)",73.3
15,"O=C(O)c1ccc2c(c1)nc(Nc1cccc(Cl)c1)c1ccncc12 + c1cc(-c2cnn3cc(-c4ccc(OCCN5CCCCC5)cc4)cnc23)ccn1 [Dorsomorphin] (first compound 2 µM, partner dose 2 µM)",72.3
16,"Cn1nnc2c(C(N)=O)ncn2c1=O [temozolomide] + Cc1cc([N+](=O)[O-])ccc1NS(=O)(=O)c1cc(Cl)ccc1Cl [FH535] (first compound 10 µM, partner dose 5 µM)",48
17,"O=C(Nc1cc(C(F)(F)F)cc(C(F)(F)F)c1)c1cc(Cl)ccc1O + COc1ccc2c(c1)CCC1C2CCC2(C)C(NCCCCCCN3C(=O)C=CC3=O)CCC12 [U73122] (first compound 0.08 µM, partner dose 2 µM)",113
18,"Cc1cc(N2CCOCC2)cc2[nH]c(-c3c(NC[C@@H](O)c4cccc(Cl)c4)cc[nH]c3=O)nc12 + Oc1nc(-c2ccc(C(F)(F)F)cc2)nc2c1CSCC2 [XAV939] (first compound 1 µM, partner dose 10 µM)",76.3
19,"O=C(Nc1cc(C(F)(F)F)cc(C(F)(F)F)c1)c1cc(Cl)ccc1O + CC(=O)O[C@@]12CO[C@@H]1C[C@H](O)[C@@]1(C)C(=O)[C@H](O)C3=C(C)[C@@H](OC(=O)[C@H](O)[C@@H](NC(=O)OC(C)(C)C)c4ccccc4)C[C@@](O)([C@@H](OC(=O)c4ccccc4)[C@H]21)C3(C)C [Docetaxel] (first compound 0.08 µM, partner dose 0.0005 µM)",44.1
20,"O=C(Nc1ccccc1)c1cc([N+](=O)[O-])ccc1Cl + O=S(=O)(c1ccccc1)N(CC(F)(F)F)c1ccc(C(O)(C(F)(F)F)C(F)(F)F)cc1 [T0901317] (first compound 10 µM, partner dose 7 µM)",75.2
21,"O=C(Nc1cc(C(F)(F)F)cc(C(F)(F)F)c1)c1cc(Cl)ccc1O + CCc1ccc(CCOc2ccc(CC3SC(=O)NC3=O)cc2)nc1 [pioglitazone] (first compound 0.08 µM, partner dose 10 µM)",105
22,"Cn1nnc2c(C(N)=O)ncn2c1=O [temozolomide] + Oc1nc(-c2ccc(C(F)(F)F)cc2)nc2c1CSCC2 [XAV939] (first compound 10 µM, partner dose 10 µM)",70.2
23,"O=C(Nc1cc(C(F)(F)F)cc(C(F)(F)F)c1)c1cc(Cl)ccc1O + C[C@]1(c2nc3c(C(N)=O)cccc3[nH]2)CCCN1 [Veliparib] (first compound 0.08 µM, partner dose 7 µM)",88.3
24,"O=C(O)c1ccc2c(c1)nc(Nc1cccc(Cl)c1)c1ccncc12 + O=C(Nc1ccccc1)c1cc([N+](=O)[O-])ccc1Cl [GW9662] (first compound 2 µM, partner dose 10 µM)",68.5
25,"O=C(O)c1ccc2c(c1)nc(Nc1cccc(Cl)c1)c1ccncc12 + Cn1cc(/C=C2\C(=O)Nc3cccnc32)c2ccccc21 [GW441756] (first compound 2 µM, partner dose 2 µM)",79.3
26,"O=C(O)[C@@H]1[O][Sb](=[O])([O][Sb]2(=[O])[O][C@H]([C@H](O)CO)[C@H](O)[C@H](C(=O)O)[O]2)[O][C@H]([C@H](O)CO)[C@@H]1O (stereo partly specified) [stibogluconate] + COc1ccc2c(c1)CCC1C2CCC2(C)C(NCCCCCCN3C(=O)C=CC3=O)CCC12 [U73122] (first compound 10 µM, partner dose 2 µM)",109
